# PMC4336329 (PLoS ONE, 2015)
# In all, about 310,000 compounds went through this assay and about 14,000 (4.5%) showed an effect of 50% or more. The effect is printed as a negative number. The list shows a part of the results.
# Target: human ether-à-go-go-related gene (hERG) potassium channel (human, UniProt Q12809)
# Assay: primary screen, population patch clamp on CHO cells stably expressing hERG
# 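Note: peak tail current of the secondary pulse compared with the same well before compound.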
# Chain of human ether-à-go-go-related gene (hERG) potassium channel (Q12809 whole entry, looked up): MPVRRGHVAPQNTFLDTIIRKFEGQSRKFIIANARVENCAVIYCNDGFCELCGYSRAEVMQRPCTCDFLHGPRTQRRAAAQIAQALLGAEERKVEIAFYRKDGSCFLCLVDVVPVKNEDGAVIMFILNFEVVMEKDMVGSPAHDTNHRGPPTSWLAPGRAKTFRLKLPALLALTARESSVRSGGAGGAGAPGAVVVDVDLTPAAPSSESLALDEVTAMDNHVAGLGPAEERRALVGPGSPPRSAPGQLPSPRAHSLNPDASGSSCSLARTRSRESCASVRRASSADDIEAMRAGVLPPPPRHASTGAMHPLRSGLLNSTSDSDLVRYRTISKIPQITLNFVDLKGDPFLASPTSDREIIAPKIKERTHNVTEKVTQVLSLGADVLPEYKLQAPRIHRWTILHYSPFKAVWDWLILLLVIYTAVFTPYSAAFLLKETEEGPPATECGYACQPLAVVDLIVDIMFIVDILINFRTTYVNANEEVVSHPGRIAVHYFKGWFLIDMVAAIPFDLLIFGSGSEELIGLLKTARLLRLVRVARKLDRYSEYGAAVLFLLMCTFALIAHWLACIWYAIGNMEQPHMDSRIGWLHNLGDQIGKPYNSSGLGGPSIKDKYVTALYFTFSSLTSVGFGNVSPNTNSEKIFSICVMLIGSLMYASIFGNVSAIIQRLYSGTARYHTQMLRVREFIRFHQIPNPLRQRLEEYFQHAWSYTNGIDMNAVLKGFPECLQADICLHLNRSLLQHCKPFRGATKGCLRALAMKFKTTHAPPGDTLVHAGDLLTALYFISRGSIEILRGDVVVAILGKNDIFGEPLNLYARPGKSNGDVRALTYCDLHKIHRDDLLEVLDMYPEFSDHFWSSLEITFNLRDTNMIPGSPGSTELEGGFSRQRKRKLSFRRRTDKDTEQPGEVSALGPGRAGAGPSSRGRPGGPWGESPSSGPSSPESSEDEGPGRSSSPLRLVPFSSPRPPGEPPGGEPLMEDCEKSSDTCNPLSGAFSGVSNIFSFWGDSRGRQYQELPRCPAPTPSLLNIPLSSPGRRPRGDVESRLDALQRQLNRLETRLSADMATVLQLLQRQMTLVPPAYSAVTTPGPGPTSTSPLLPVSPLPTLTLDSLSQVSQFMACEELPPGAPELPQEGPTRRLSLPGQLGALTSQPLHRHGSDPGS
row,SMILES,"hERG current change (%, negative = inhibition) at 10uM [%]"
1,COCCn1c(SCC(=O)NCc2ccccc2)nnc1-c1ccco1,5.7
2,O=C(COC(=O)Cn1cnc2ccccc21)Nc1cccc([N+](=O)[O-])c1,14.2
3,CCOC(=O)C1=C(C)N=c2s/c(=C\c3ccncc3)c(=O)n2C1c1ccc2c(c1)OCO2 (stereo not shown),1.94
4,O=C(NCCCn1ccnc1)/C(=C\c1cccnc1)NC(=O)c1ccco1,-0.164
5,CC(NC(=O)c1ccc2c(=O)n3c(nc2c1)CCC3)c1ccc(S(N)(=O)=O)cc1 (stereo not shown),5.62
6,O=[N+]([O-])c1ccc2nc(SCc3cn4ccccc4n3)[nH]c2c1,3.53
7,COc1cc(S(=O)(=O)NCc2cccnc2)ccc1F,-5.7
8,O=C(O)c1ccc(-n2cccc2/C=C2/SC(=O)N(CC(=O)N3CCCC3)C2=O)cc1,19.1
9,COc1ccc(N2C(=O)NC(=O)/C(=C\c3cn(C)c4ccccc34)C2=O)cc1,16.9
10,Cc1ccc(C(=O)N2CCN(CCNC(=O)C(=O)NCc3ccc(Cl)cc3)CC2)cc1,-74
11,Brc1ccc(C2=CC(c3cccs3)n3ncnc3N2)cc1 (stereo not shown),-21
12,O=C1CN(C(=O)COC(=O)c2ccccc2NC(=O)c2ccco2)c2ccccc2N1,-22.6
13,COc1ccccc1CN1CC(C(=O)N(C)CCOc2ccccc2)CCC1=O (stereo not shown),-9.29
14,CCc1ccccc1NC(=O)Cn1nnc(C(=O)NCc2cccc(OC)c2)c1N,9.99
15,COCc1nnc(NC(=O)c2ccc(NC(C)=O)cc2)s1,2.68
16,O=C(Nc1ccccc1)C1=C[C@H](c2ccccc2)C[C@H](OCc2ccc(CO)cc2)O1,-3.42
17,Cn1cncc1C(=O)c1ccccc1,15.3
18,CC(C)CNC(=S)NC1CC2CCCC(C1)N2Cc1ccco1 (stereo not shown),-26.6
19,Cc1cccc(C(=O)NCC2CCCO2)c1 (stereo not shown),17.8
20,CN(/N=C/c1cccs1)c1cc(=O)n(C)c(=O)[nH]1,-1.93
21,CC1=CCC(C(=O)O)(C(=O)N/N=C/c2cccnc2)C(c2ccccc2)C1 (stereo not shown),-19.1
22,O=C(NC(=S)Nc1ccccc1N1CCOCC1)c1ccc(-c2cccc(Cl)c2)o1,9.91

row,SMILES,"hERG current change (%, negative = inhibition) at 10uM [%]"
1,CC(Sc1nnc(-c2ccccc2F)n1N)C(=O)NCC1CCCO1 (stereo not shown),1.71
2,COc1cccc(NC(=O)Nc2nnc(Cc3ccccc3)s2)c1,12.5
3,C=CCSc1nc(Oc2ccccc2)c2sccc2n1,0.33
4,COc1ccc(CCNC(=O)CN(c2ccc(C)cc2)S(=O)(=O)c2c(C)noc2C)cc1OC,-9.89
5,OCC#CCSc1nnc(-c2ccncc2)o1,-0.348
6,COc1ccccc1/C=C1/SC(=S)N(CCC(=O)Nc2cccnc2)C1=O,9.87
7,CCOC(=O)/C(C#N)=C(\O)c1ccc(NC(=O)c2ccc([N+](=O)[O-])cc2)cc1,7.37
8,CSc1nc2ccccc2cc1/C=C(\C#N)c1cccc(Cl)c1,8.2
9,O=C(Nc1ccccc1Cl)c1csc(-c2cccnc2)n1,1.9
10,CCCCN(CCCC)CCNC(=O)CSCc1ccc(C)cc1.O=C(O)C(=O)O,-63.2
11,COc1ccc(F)cc1C(=O)COC(=O)c1n[nH]c(=O)c2ccccc12,-12.8
12,CCCCCCSc1ccc(-c2nc3ccc(C)cn3c2NC2CCCCC2)cc1.O=C(O)C(F)(F)F,10.9
13,OCCNc1cc(Cl)ncn1,4.5
14,COc1ccc(C2C(C(=O)c3cccs3)=C(O)C(=O)N2c2cccc(C)n2)cc1OC (stereo not shown),2.25
15,Cc1ccc(C)c(S(=O)(=O)c2c(N)n(/N=C/c3ccco3)c3nc4ccccc4nc23)c1,-5.78
16,CSC1=C(C#N)C(c2ccccc2)C(C(C)=O)=C(C)N1 (stereo not shown),10.6
17,COc1ccccc1C(=O)NNC(=O)C(=O)NCc1ccccc1,2.4
18,Cc1cccc(C)c1OCC(=O)N/N=C/c1cc2c(cc1[N+](=O)[O-])OCO2,-4.6
19,COc1ccc(S(=O)(=O)N2CC(=O)Nc3ccccc32)cc1C,0.792
20,COc1ccc(NC(=O)c2ccc(-c3nn(C)c(=O)c4ccccc34)cc2)cc1C(N)=O,6.4
21,Cc1c(Cl)cccc1Nc1nc(N)nc(CSC(=S)N2CCOCC2)n1,-12.5
22,CC1CCC(NC(=O)Cn2cnc3sccc3c2=O)CC1 (stereo not shown),-3.86

row,SMILES,"hERG current change (%, negative = inhibition) at 10uM [%]"
1,O=C(CNS(=O)(=O)c1ccccc1)OCC(=O)c1ccc([N+](=O)[O-])cc1,-3.22
2,CS(=O)(=O)N(CC(=O)N1CCCCCC1)c1cccc(F)c1,9.13
3,Cc1cccc(NC(=O)C2CCCN(S(=O)(=O)c3cccc4cccnc34)C2)c1 (stereo not shown),-41.5
4,O=C(CCCn1c(SCc2ccccc2F)nc2ccccc2c1=O)NCC1CCCO1 (stereo not shown),-14
5,COCCNC(=O)c1c[nH]c2cc(OC)c(OC)cc2c1=O,15.9
6,c1ccc(CNc2ncnc3nc[nH]c23)nc1,5.41
7,CCC(CC)C(=O)Nc1cccc(C(=O)NCc2ccco2)c1,2.97
8,O=C(NC(=S)NCCc1ccccc1)C1CCCCC1,1.11
9,O=C(NCc1ccc2c(c1)OCO2)c1ccc(S(=O)(=O)N2CCOCC2)cc1,2.27
10,Cc1nn(-c2ccc(F)cc2)c(C)c1CN1CCN(CCc2ccccc2)C(CCO)C1 (stereo not shown),-67.5
11,NC(=O)c1sc2cc(C(F)(F)F)cnc2c1-c1ccccc1,15.5
12,Cc1cccc(CN2CCC(n3nccc3NC(=O)CCCc3ccccc3)CC2)n1,-20.2
13,CC1(C)C2CCC1(CS(=O)(=O)Nc1ccc(S(=O)(=O)N3CCCCC3)cc1)C(=O)C2 (stereo not shown),-18.3
14,CC(C)CC(=O)NC(=S)Nc1ccccn1,14.5
15,Cc1ccc(S(=O)(=O)Nc2c(C)n(C)n(-c3ccccc3)c2=O)cc1C(=O)OC(C)C(=O)N(C)c1ccccc1 (stereo not shown),-10.5
16,Cc1nc(-c2ccccc2)sc1-c1ccnn1C,-6.14
17,OC(COc1ccc(F)cc1Cl)CN1CCC(Cc2ccccc2)CC1 (stereo not shown),-84.6
18,COc1ccc(/C=N/NC(=O)C(O)(c2ccccc2)c2ccccc2)cc1OC,-1.35
19,O=C(Nc1nnc(COc2ccccc2F)s1)Nc1ccccc1F,18.6
20,CCCCc1ccc(Nc2ncccc2C#N)cc1,0.0115
21,CC(=O)C(Cc1ccc(Cl)nc1)(Cc1ccc(Cl)nc1)C(C)=O,-7.36
22,CN1C(=S)SC(N(O)C(=O)Nc2cccc3ccccc23)C1(C)C (stereo not shown),8.33

row,SMILES,"hERG current change (%, negative = inhibition) at 10uM [%]"
1,CN(C)c1ccc(/C=N/NC(=O)c2ccn(C)n2)cc1,11.9
2,O=C(CCc1ccccc1)Oc1ccccc1[N+](=O)[O-],7.07
3,CCOP(=O)(OCC)C(NC(=O)c1cccc2ccccc12)C(Cl)(Cl)Cl (stereo not shown),1.75
4,CC(=O)NCCOc1ccc(C(=O)O)cc1,3.64
5,C=C(C)c1cccc(C(C)(C)NC(=O)NCCN(CC)CC)c1,-6.65
6,CC1(C)CC(NC(=O)Cc2ccccc2[N+](=O)[O-])CC(C)(C)N1,-4.2
7,Cc1ccc(-n2c(Cc3cccs3)nnc2SCC(=O)Nc2ccc(F)c(F)c2)cc1,-22
8,COc1ccc(OC)c(C(C[N+](=O)[O-])c2c(C)cc3ccccn23)c1 (stereo not shown),2.33
9,Cc1cccc(/C=N/NC(=O)c2ccc(NC(=O)c3cccc(Cl)c3)cc2)n1,11.7
10,COc1ccc2oc3cc(C)[n+]([O-])c(-c4ccc(Br)cc4)c3c2c1,-0.16
11,CCCc1c2ccccc2nc2ccccc12,-21.2
12,O=C(CSc1nc2[nH]ncc2c(=O)n1-c1ccccc1)NCc1cccs1,6.89
13,CN(C)CCCOC(=O)c1ccccc1Cl.Cl,-0.792
14,COc1ccc2[nH]c(=O)c(CN(Cc3nnnn3CCc3ccccc3)CC3CCCO3)cc2c1 (stereo not shown),-30.2
15,Cc1ccc(C(C)C)c(OCC(O)CN2CC(C)OC(C)C2)c1.Cl (stereo not shown),-8.64
16,COc1ccc(/C=N/n2c(C)nc3sc(C)c(C)c3c2=O)cc1,20.5
17,COc1ccc(N=C2SC(C(N)=O)CC(=O)N2CCc2ccc(OC)c(OC)c2)cc1 (stereo not shown),1.7
18,C=C(C)c1cccc(C(C)(C)NC(=O)Nc2ccc(OC)cc2)c1,8.48
19,COc1cc(OC)cc(-n2nnnc2SCC(=O)Nc2nc3c(s2)CCCC3)c1,7.1
20,O=C(Nc1nc(-c2cccnc2)cs1)c1ccccc1Cl,1.51
21,COC(=O)CC1C(=O)NCCN1C(=O)CSc1nc2ccc([N+](=O)[O-])cc2s1 (stereo not shown),6.54
22,CCOC(=O)C1C(C(=O)Nc2cccc(C(F)(F)F)c2)C1C(=O)NC(C)C (stereo not shown),14.5
